Assay results taken from the supplement of paper PMC10037445.
Over roughly 2,900 compounds, “NF-kB SEAP reporter activity, fold change vs agonist alone” has its median near 0.99; the highest 2% begin near 2.6. This is one part of the list.

Experiments:
[1] = system: RAW-Dual; test: NF-kB SEAP reporter activity, fold change vs agonist alone; cytotoxicity flag (confluency mask): cytotoxic (confluency <70% of control); higher = enhanced NF-kB activity
In short: (§1)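 RAW-Dual macrophages were seeded in DMEM at 50,000 cells/well in 384-well plates, given 50 nL of library stock by pin tool, and given a PRR agonist 1 h later. Plates were held at 37 °C, 5% CO2 for 20 hours, after which supernatant was read for IRF by QuantiLuc luminescence and for NF-κB by QuantiBlue absorbance at 620 nm. Reporter activity is expressed as fold change over wells that received agonist alone. A well was called cytotoxic when IncuCyte confluency fell below 70% of agonist controls in both mask sets.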

[2] = system: RAW-Dual; test: NF-kB SEAP reporter activity, fold change vs agonist alone; cytotoxicity flag (confluency mask): not cytotoxic; higher = enhanced NF-kB activity
In short: as §1

[3] = system: RAW-Dual; test: NF-kB SEAP reporter activity, fold change vs agonist alone; higher = enhanced NF-kB activity; conditions: library stock concentration (final ~1000-fold dilution): 10 mM
In short: as §1

[4] = agonist: ODN 1826 (TLR9) 0.5 ug/mL
[5] = agonist: Pam2CSK4 (TLR2/6) 0.1 ug/mL
[6] = agonist: Pam3CSK4 (TLR2/1) 0.1 ug/mL
[7] = cytotoxicity flag (confluency mask): not cytotoxic, agonist: Imiquimod (TLR7) […]
[8] = cytotoxicity flag (confluency mask): not cytotoxic, agonist: MPLA (TLR4) […]
[9] = cytotoxicity flag (confluency mask): cytotoxic (confluency <70% of control), agonist: Imiquimod (TLR7) […]
[10] = cytotoxicity flag (confluency mask): cytotoxic (confluency <70% of control), agonist: MPLA (TLR4) […]

O=C1NCCc2[nH]c(-c3ccncc3)cc21 (library stock concentration (final ~1000-fold dilution): 10 mM)
NF-kB SEAP reporter activity ([1]; agonist: LPS (TLR4) 0.1 ug/mL): 0.494
NF-kB SEAP reporter activity [1, 4]: 2.47
NF-kB SEAP reporter activity [1, 5]: 0.576
NF-kB SEAP reporter activity [1, 6]: 0.606

O=C(/C=C/c1ccc(O)c(O)c1)c1ccc(O)cc1O (library stock concentration (final ~1000-fold dilution): 10 mM)
NF-kB SEAP reporter activity ([2]; agonist: LPS (TLR4) 0.1 ug/mL): 0.414
NF-kB SEAP reporter activity [2, 4]: 0.263
NF-kB SEAP reporter activity [2, 5]: 0.16
NF-kB SEAP reporter activity [2, 6]: 0.145

O=C(/C=C/c1ccc(O)c(O)c1)c1ccc(O)cc1O
NF-kB SEAP reporter activity [3, 7]: 0.628
NF-kB SEAP reporter activity [3, 8]: 0.736

COc1ccccc1N1CCN(CCCNc2cc(=O)n(C)c(=O)n2C)CC1.Cl
NF-kB SEAP reporter activity [3, 7]: 1.18
NF-kB SEAP reporter activity [3, 8]: 0.935

COc1ccccc1N1CCN(CCCNc2cc(=O)n(C)c(=O)n2C)CC1.Cl (library stock concentration (final ~1000-fold dilution): 10 mM)
NF-kB SEAP reporter activity ([2]; agonist: LPS (TLR4) 0.1 ug/mL): 1.02
NF-kB SEAP reporter activity [2, 4]: 0.978
NF-kB SEAP reporter activity [2, 5]: 1.06
NF-kB SEAP reporter activity [2, 6]: 1.17

O=C(CCCCCCC(=O)Nc1ccccc1)NO (library stock concentration (final ~1000-fold dilution): 10 mM)
NF-kB SEAP reporter activity ([1]; agonist: LPS (TLR4) 0.1 ug/mL): 6.47
NF-kB SEAP reporter activity [1, 4]: 2.34
NF-kB SEAP reporter activity [1, 5]: 0.808
NF-kB SEAP reporter activity [1, 6]: 1.86

O=C(CCCCCCC(=O)Nc1ccccc1)NO
NF-kB SEAP reporter activity [3, 9]: 2.38
NF-kB SEAP reporter activity [3, 10]: 2.6

CN1C(=O)NC(Cc2c[nH]c3c(Cl)cccc23)C1=O (configuration not stated) (library stock concentration (final ~1000-fold dilution): 10 mM)
NF-kB SEAP reporter activity ([2]; agonist: LPS (TLR4) 0.1 ug/mL): 1.33
NF-kB SEAP reporter activity [2, 4]: 0.951
NF-kB SEAP reporter activity [2, 5]: 0.977
NF-kB SEAP reporter activity [2, 6]: 1.31

CN1C(=O)NC(Cc2c[nH]c3c(Cl)cccc23)C1=O (configuration not stated)
NF-kB SEAP reporter activity [3, 7]: 0.354
NF-kB SEAP reporter activity [3, 8]: 0.685

Cc1cc(C(=O)NC(C)(C)C)cc(C#Cc2ccc3c4c(oc3c2)C(C)(C)c2cc(NS(C)(=O)=O)ccc2C4=O)n1 (library stock concentration (final ~1000-fold dilution): 10 mM)
NF-kB SEAP reporter activity ([2]; agonist: LPS (TLR4) 0.1 ug/mL): 1.17
NF-kB SEAP reporter activity [2, 4]: 0.858
NF-kB SEAP reporter activity [2, 5]: 0.258
NF-kB SEAP reporter activity [2, 6]: 0.256

Cc1cc(C(=O)NC(C)(C)C)cc(C#Cc2ccc3c4c(oc3c2)C(C)(C)c2cc(NS(C)(=O)=O)ccc2C4=O)n1
NF-kB SEAP reporter activity [3, 7]: 1
NF-kB SEAP reporter activity [3, 8]: 0.918

COc1ccc2c(c1)c(C1=C(c3c[nH]c4ccccc34)C(=O)NC1=O)cn2CCCN(C)C
NF-kB SEAP reporter activity [3, 9]: 2.44
NF-kB SEAP reporter activity [3, 10]: 1.71

COc1ccc2c(c1)c(C1=C(c3c[nH]c4ccccc34)C(=O)NC1=O)cn2CCCN(C)C (library stock concentration (final ~1000-fold dilution): 10 mM)
NF-kB SEAP reporter activity ([1]; agonist: LPS (TLR4) 0.1 ug/mL): 1.23
NF-kB SEAP reporter activity [1, 4]: 0.346
NF-kB SEAP reporter activity [1, 5]: 1.25
NF-kB SEAP reporter activity [1, 6]: 1.82

NC(=O)c1cc(F)cc2c1C(=O)N(C1CCN(C3CCC(F)(F)CC3)CC1)C2 (library stock concentration (final ~1000-fold dilution): 10 mM)
NF-kB SEAP reporter activity ([2]; agonist: LPS (TLR4) 0.1 ug/mL): 1.2
NF-kB SEAP reporter activity [2, 4]: 0.868
NF-kB SEAP reporter activity [2, 5]: 1.15
NF-kB SEAP reporter activity [2, 6]: 1.45

NC(=O)c1cc(F)cc2c1C(=O)N(C1CCN(C3CCC(F)(F)CC3)CC1)C2
NF-kB SEAP reporter activity [3, 7]: 1.12
NF-kB SEAP reporter activity [3, 8]: 1.11

CC(C)=CCC[C@](C)(O[C@@H]1O[C@H](CO)[C@@H](O)[C@H](O)[C@H]1O)[C@H]1CC[C@]2(C)[C@@H]1[C@H](O)C[C@@H]1[C@@]3(C)CC[C@H](O)C(C)(C)[C@@H]3[C@@H](O[C@@H]3O[C@H](CO)[C@@H](O)[C@H](O)[C@H]3O)C[C@]12C
NF-kB SEAP reporter activity [3, 7]: 0.936
NF-kB SEAP reporter activity [3, 8]: 1.01

CC(C)=CCC[C@](C)(O[C@@H]1O[C@H](CO)[C@@H](O)[C@H](O)[C@H]1O)[C@H]1CC[C@]2(C)[C@@H]1[C@H](O)C[C@@H]1[C@@]3(C)CC[C@H](O)C(C)(C)[C@@H]3[C@@H](O[C@@H]3O[C@H](CO)[C@@H](O)[C@H](O)[C@H]3O)C[C@]12C (library stock concentration (final ~1000-fold dilution): 10 mM)
NF-kB SEAP reporter activity ([2]; agonist: LPS (TLR4) 0.1 ug/mL): 1.08
NF-kB SEAP reporter activity [2, 4]: 1.06
NF-kB SEAP reporter activity [2, 5]: 1.19
NF-kB SEAP reporter activity [2, 6]: 1.12
